Measured values reported in the supplement of paper PMC3334620.
Over roughly 33,000 sequences, “E-score (-0.5 to 0.5)” has its median near -0.04; the highest 2% begin near 0.36. Some of the results follow.

The sequences below were run against T1, Hmlalpha2 (UniProt P0CY09) (assay: PBM E-score (8-mer binding enrichment) (E-score (-0.5 to 0.5)); higher = stronger / more preferred TF binding; most listed sequences are background and not binding sites). Conditions: protein concentration: 200 nM; construct: GST-full length.
T1 sequence: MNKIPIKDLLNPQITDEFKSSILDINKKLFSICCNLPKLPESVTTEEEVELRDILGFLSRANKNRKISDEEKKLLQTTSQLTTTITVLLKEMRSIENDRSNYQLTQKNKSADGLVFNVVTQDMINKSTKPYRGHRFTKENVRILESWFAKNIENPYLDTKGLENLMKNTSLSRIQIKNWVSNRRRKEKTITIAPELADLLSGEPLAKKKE
In short: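 Detection of bound protein used fluorescent anti-GST, with scans normalised by masliner. The proteins were GST-tagged yeast transcription factors applied at about 100-200 nM to universal all-10-mer Agilent arrays made double-stranded by primer extension. Each ungapped eight-base word, pooled with its reverse complement, was scored with an E-score from the Universal PBM Analysis Suite.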
With CTCCATTC the “PBM E-score” value was -0.305.
CTCGGGGC was tested, and the “PBM E-score” value was -0.159.
For AGAATCCC, the “PBM E-score” value was -0.0598.
With CCCTTTTC the “PBM E-score” value was -0.175.
In the case of GATTCTGA, the “PBM E-score” value is reported as -0.0885.
With CAATACTG the “PBM E-score” value was -0.12.
In the case of ATCTTTAC, the “PBM E-score” value is reported as 0.307.
AACGTAAG was tested, and the “PBM E-score” value was 0.085.
For CTTGCAGC, the “PBM E-score” value was -0.026.
GCGTACAC was tested, and the “PBM E-score” value was 0.247.
For ATCGGATG, the “PBM E-score” value was -0.151.
With GCAAGCTA the “PBM E-score” value was 0.0155.
ATTAGATC was tested, and the “PBM E-score” value was 0.0379.
For CACCTACA, the “PBM E-score” value was 0.109.
AACTGACT was tested, and the “PBM E-score” value was -0.0831.
In the case of CGGTCCGC, the “PBM E-score” value is reported as -0.225.
ACCACAAG was tested, and the “PBM E-score” value was -0.12.
In the case of ACGATCCG, the “PBM E-score” value is reported as -0.144.
With ATTGCGTG the “PBM E-score” value was 0.203.
GGTCGAGA was tested, and the “PBM E-score” value was -0.0719.
For ATGTCGAG, the “PBM E-score” value was 0.224.
In the case of ACTACAAA, the “PBM E-score” value is reported as 0.17.
With TTAGCTAA the “PBM E-score” value was 0.192.
In the case of AAGTAATA, the “PBM E-score” value is reported as 0.24.
For AGTTCAAT, the “PBM E-score” value was -0.0837.
In the case of CCAAGAAC, the “PBM E-score” value is reported as -0.074.
In the case of GTCCACAA, the “PBM E-score” value is reported as -0.00027.
With GCACACAC the “PBM E-score” value was 0.178.
In the case of ACCTAATG, the “PBM E-score” value is reported as -0.0242.
CCGCCTAC was tested, and the “PBM E-score” value was 0.0229.
In the case of TAATCGTA, the “PBM E-score” value is reported as 0.191.
CCCAAAAA was tested, and the “PBM E-score” value was -0.0325.
For TCCTGAGA, the “PBM E-score” value was -0.0663.
AGAGGATC was tested, and the “PBM E-score” value was -0.204.
With GTATGCCA the “PBM E-score” value was -0.254.
In the case of CAATCTTA, the “PBM E-score” value is reported as 0.159.
In the case of AACGCGGT, the “PBM E-score” value is reported as 0.238.
In the case of CTTGTTTA, the “PBM E-score” value is reported as 0.311.
In the case of ACTTTCCC, the “PBM E-score” value is reported as -0.13.
In the case of ACCAGCGG, the “PBM E-score” value is reported as -0.131.
For CCGTGATC, the “PBM E-score” value was -0.333.
For ACCTTGCA, the “PBM E-score” value was -0.157.
For TCAACGAA, the “PBM E-score” value was 0.16.
AGCGAAAA was tested, and the “PBM E-score” value was -0.129.
With ATGGCCAG the “PBM E-score” value was -0.0836.
For CCTCAAGA, the “PBM E-score” value was -0.00472.
With AGGTAACT the “PBM E-score” value was 0.0319.
For ACCAACAA, the “PBM E-score” value was 0.198.
CCCTTTCC was tested, and the “PBM E-score” value was -0.227.
For AAAGAGAA, the “PBM E-score” value was -0.11.
For GAAATATC, the “PBM E-score” value was -0.159.
In the case of GCCCAAAC, the “PBM E-score” value is reported as -0.104.
With AGTATGTC the “PBM E-score” value was 0.201.
In the case of AGCCGGCC, the “PBM E-score” value is reported as -0.119.
ACCTACTC was tested, and the “PBM E-score” value was -0.0541.
CACGGTCA was tested, and the “PBM E-score” value was 0.121.
For AAGTCAGA, the “PBM E-score” value was -0.153.
With AAGCTTGA the “PBM E-score” value was -0.185.
For CGCCAGTC, the “PBM E-score” value was -0.225.
For ATAAGCTA, the “PBM E-score” value was 0.0838.
CTTAACCC was tested, and the “PBM E-score” value was -0.0467.
For ACTTGCAG, the “PBM E-score” value was -0.0185.
In the case of AAAGTCTT, the “PBM E-score” value is reported as -0.193.
In the case of TTGAAAAA, the “PBM E-score” value is reported as 0.115.
For CCCCCAGA, the “PBM E-score” value was -0.415.
In the case of AGAGAAGA, the “PBM E-score” value is reported as 0.0365.
With ACGACGAA the “PBM E-score” value was 0.138.
ACTCTACT was tested, and the “PBM E-score” value was 0.0373.
In the case of CACCCAAC, the “PBM E-score” value is reported as -0.174.
ATTGCGTC was tested, and the “PBM E-score” value was -0.0657.
For CGTAATTC, the “PBM E-score” value was 0.321.
With AACTTATG the “PBM E-score” value was 0.19.
CTAGCTTA was tested, and the “PBM E-score” value was 0.00657.
For ATAGCGGA, the “PBM E-score” value was -0.149.
In the case of GGACAATA, the “PBM E-score” value is reported as -0.0131.
In the case of AGCGGAAC, the “PBM E-score” value is reported as -0.181.
For CCTTGCCG, the “PBM E-score” value was -0.228.
For AGAAAAAT, the “PBM E-score” value was 0.144.
In the case of ACTCGAGG, the “PBM E-score” value is reported as -0.114.
With GACAGCGC the “PBM E-score” value was 0.0293.
With GACGGAAC the “PBM E-score” value was -0.117.
With TTATCCAA the “PBM E-score” value was 0.19.
In the case of AGGTCTGA, the “PBM E-score” value is reported as -0.0612.
With AGCAGTGG the “PBM E-score” value was -0.329.
In the case of CTGCGACC, the “PBM E-score” value is reported as -0.349.
AACGCCGA was tested, and the “PBM E-score” value was 0.165.
GTTAGTGA was tested, and the “PBM E-score” value was 0.152.
For AGAATTGA, the “PBM E-score” value was -0.00062.
For AAAGTCGG, the “PBM E-score” value was -0.0953.
In the case of ACGTGTGC, the “PBM E-score” value is reported as 0.172.
In the case of AGAACAAG, the “PBM E-score” value is reported as 0.172.
In the case of AATGATCC, the “PBM E-score” value is reported as 0.0156.
In the case of AAGAGGCA, the “PBM E-score” value is reported as -0.184.
With GTTGTATA the “PBM E-score” value was 0.38.
For AAGTAGCT, the “PBM E-score” value was 0.0166.
With CTGTTTCC the “PBM E-score” value was -0.11.
AGTTAGAG was tested, and the “PBM E-score” value was -0.207.
With CACGTGCC the “PBM E-score” value was 0.101.
CCAAGCAA was tested, and the “PBM E-score” value was -0.0774.
AGACTCTG was tested, and the “PBM E-score” value was -0.0718.
With AAAAATGT the “PBM E-score” value was 0.146.
For GCCATAGC, the “PBM E-score” value was 0.00227.
In the case of CCTGTAAC, the “PBM E-score” value is reported as 0.093.
AAATCATC was tested, and the “PBM E-score” value was -0.0814.
For AGGAAATC, the “PBM E-score” value was -0.0186.
ACGTTGCG was tested, and the “PBM E-score” value was 0.0728.
With CCACAAAA the “PBM E-score” value was 0.0522.
In the case of CCCAACAC, the “PBM E-score” value is reported as 0.113.
ACTATAAT was tested, and the “PBM E-score” value was 0.15.
